About 14,000 (4.5%) of roughly 310,000 compounds showed an effect of 50% or more. The effect is printed as a negative number. This is one part of the list.
target: human ether-à-go-go-related gene (hERG) potassium channel (human, UniProt Q12809); test: primary screen, population patch clamp on CHO cells stably expressing hERG
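Further: peak tail current of the secondary pulse compared with the same well before compound.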

human ether-à-go-go-related gene (hERG) potassium channel, sequence (Q12809 whole entry, looked up): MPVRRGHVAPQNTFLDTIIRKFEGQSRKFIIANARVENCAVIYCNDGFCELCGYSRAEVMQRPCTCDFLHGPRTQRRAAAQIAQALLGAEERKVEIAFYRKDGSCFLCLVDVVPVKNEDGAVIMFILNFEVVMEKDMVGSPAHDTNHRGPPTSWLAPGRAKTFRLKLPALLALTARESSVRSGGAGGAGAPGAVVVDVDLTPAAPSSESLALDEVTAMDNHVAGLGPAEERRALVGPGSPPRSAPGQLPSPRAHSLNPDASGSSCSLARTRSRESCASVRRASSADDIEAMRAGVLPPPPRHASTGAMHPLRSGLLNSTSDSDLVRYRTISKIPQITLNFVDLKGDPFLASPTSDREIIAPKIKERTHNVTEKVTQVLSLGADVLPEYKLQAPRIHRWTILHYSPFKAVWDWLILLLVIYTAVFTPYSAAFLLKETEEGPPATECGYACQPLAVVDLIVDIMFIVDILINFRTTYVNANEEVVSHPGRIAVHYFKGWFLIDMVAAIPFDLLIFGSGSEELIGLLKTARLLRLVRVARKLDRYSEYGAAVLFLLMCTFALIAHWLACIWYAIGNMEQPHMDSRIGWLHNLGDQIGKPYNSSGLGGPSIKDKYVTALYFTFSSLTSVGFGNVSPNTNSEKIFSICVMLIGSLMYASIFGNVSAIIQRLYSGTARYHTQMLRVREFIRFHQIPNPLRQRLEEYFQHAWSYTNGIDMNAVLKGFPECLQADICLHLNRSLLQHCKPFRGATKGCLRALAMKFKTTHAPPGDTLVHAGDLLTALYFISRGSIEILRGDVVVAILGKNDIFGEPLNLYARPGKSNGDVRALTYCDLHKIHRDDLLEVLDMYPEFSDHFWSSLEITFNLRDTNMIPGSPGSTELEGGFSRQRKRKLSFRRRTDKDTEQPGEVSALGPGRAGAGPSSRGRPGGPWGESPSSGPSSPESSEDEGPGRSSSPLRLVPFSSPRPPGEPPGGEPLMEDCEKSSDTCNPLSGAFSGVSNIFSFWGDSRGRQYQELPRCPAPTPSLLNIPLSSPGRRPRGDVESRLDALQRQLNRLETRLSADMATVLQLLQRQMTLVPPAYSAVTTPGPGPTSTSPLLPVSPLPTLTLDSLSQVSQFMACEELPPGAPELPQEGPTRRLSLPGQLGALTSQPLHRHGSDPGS

Compound | hERG current change (%, negative = inhibition) at 10uM [%]
CNCc1cc(Br)c(OCC(=O)Nc2ccccc2OC)c(OC)c1.Cl | -36.2
COc1ccc(Cc2noc(CN3CCCN(Cc4ccc(F)cc4)CC3)n2)cc1OC | -60.8
O=C1NC(=O)/C(=C/c2ccccc2OCc2ccccc2)S1 | 17.2
O=C(NCCc1ccccc1)c1cccc2c1C(=O)N(C1CCCCC1)C2 | 13.8
Cc1cc(C)cc(N(CC(=O)NC2CCCC2)C(=O)c2csnn2)c1 | 25.6
CCCCn1c(N)c(N(CCOC)C(=O)COC(=O)Cc2cccc(OC)c2)c(=O)[nH]c1=O | -26.9
Cc1cc2c(cc1C)-c1nnc(-c3ccc4ccccc4n3)n1C(C)(C)C2 | 5.88
COC(=O)CSc1nc2cc3c(cc2cc1C)OCCO3 | 13.3
CCn1c(=O)c(CCC(=O)NCC2CCCO2)c(C)c2c(C)nn(-c3ccccc3)c21 (centres unmarked) | 12.5
COCCNC(=O)c1cc2cc(Cl)cc(Cl)c2oc1=O | -4.51
O=C(CN1C(=O)/C(=C\c2ccc(F)cc2)Oc2ccccc21)N1CCN(c2ccccn2)CC1 | -2.49
CCn1c(C)c(C(C)=O)c(N2CCN(c3ccccn3)CC2)nc1=S | -9.78
CCOC(=O)C1CCN(C(=O)c2ccc(SC)cc2OC)CC1 | -19.8
CN(c1ccccc1)S(=O)(=O)c1ccc(C(=O)OCC(=O)NC(N)=O)cc1 | 11
Cc1ccc(S(=O)(=O)CCC(=O)Nc2nnc(CC(C)C)s2)cc1 | -1.45
O=C(NCc1ccccn1)c1ccccc1Cl | 5.14
Cc1cccc(C)c1OCc1nnc(SCC(=O)Nc2cccc(C(=O)N3CCOCC3)c2)n1C | -2.56
Cc1nn(Cc2ccccc2)c(Cl)c1C(=O)O | 29
CSc1nnc(-c2cnccn2)n1Cc1ccccc1 | 11.9

Compound | hERG current change (%, negative = inhibition) at 10uM [%]
O=C(OCc1ccccc1)/C(=C(\O)c1ccccc1Br)c1ccc(-c2ccccc2)cn1 | 3.75
COc1ccc(C=C2C(=O)c3ccccc3C2=O)cc1O | 6.27
COc1ccc(F)cc1S(=O)(=O)n1cc(C)nc1-c1ccccc1 | 2.69
NC(=O)C1CCCN(CC(=O)N2CCN(c3ccccc3)CC2)C1 (centres unmarked) | 12.3
Cn1c(=O)oc2cc(S(=O)(=O)Nc3ccccc3O)ccc21 | 7.58
O=C(Cn1nnc(-c2ccc(S(=O)(=O)N3CCCC3)cc2)n1)NCC1CCCO1 (centres unmarked) | 2.43
O=c1[nH]c(=O)n(Cc2ccco2)c(O)c1C=NCc1ccco1 | 3.46
CC1CC(C)(C)NC(=S)N1CC(=O)N1CCN(Cc2ccc3c(c2)OCO3)CC1 (centres unmarked) | 12.2
Cc1ccccc1NS(=O)(=O)c1cc(C(N)=O)ccc1C | 0.667
COc1cccc(-c2nc(-c3ccc(C(=O)O)cc3)no2)c1 | -3.57
O=C(CSc1nc2ncccc2[nH]1)Nc1ccc2c(c1)OCO2 | 9.63
CC(C)(C)NC(=O)CN1CCN(C(=O)CCl)CC1.Cl | 8.35
CN(C(=O)CCN1C(=O)C2C3C=CC(C3)C2C1=O)c1ccccc1 (centres unmarked) | 12.3
CN1CCN(c2ccccc2NC(=O)C(Cc2ccccc2)n2cccc2)CC1 (centres unmarked) | -65.6
O=C(O)CCCn1cc(NC(=O)c2c(F)cccc2F)cn1 | 22.5
CC1Cc2ccccc2N1C(=O)COC(=O)C1(c2ccccc2F)CCCC1 (centres unmarked) | -5.21
OCC1CCCN(Cc2ccc(-c3ccccc3)cc2)C1 (centres unmarked) | -28.4
COc1cc(NC(=O)c2cc(C)nc3ccccc23)cc(OC)c1 | 20.8
COC(=O)COC(=O)c1ccc(O)cc1 | -13.7

Compound | hERG current change (%, negative = inhibition) at 10uM [%]
CCOC(=O)C1=C(CSc2nc(-c3ccncc3)ccc2C#N)OC(N)=C(C#N)C1c1ccc(OC)cc1 (centres unmarked) | 2.11
CCSc1ccc([C@@H]2[C@@H]3C(=O)N(CC)C(=O)[C@@H]3[C@]3(C(=O)OC)CCCCN23)cc1.O=C(O)C(F)(F)F | -4.27
Cc1cnn(-c2cc(N/N=C/c3ccccc3Cl)ncn2)c1 | 15.1
CC(C(=O)O)n1nnc2ccccc21 (centres unmarked) | 9.12
COc1ccc(NC(=O)CSCc2cc(=O)n3ccsc3n2)cc1 | 22.7
CC(=O)c1c(-c2ccc(C)cc2)nc2c3ccccc3ccn12 | 10.2
COC(C(=O)Nc1ccc(S(=O)(=O)Nc2ccc(F)cc2)cc1)c1ccccc1 (centres unmarked) | 0.504
CCN1CCc2c(sc(NC(=O)c3ccc(S(=O)(=O)N4CCCCCC4)cc3)c2C(=O)NC)C1 | -36.6
COc1cccc(-c2ccc3ncnc(NCc4cccc(C)c4)c3c2)c1 | -0.57
O=C(OCC(=O)N1CCOCC1)c1ccc[nH]c1=O | 10.6
O=C(Nc1ccc2c(c1)OCCO2)C1CCCN(c2ncccn2)C1 (centres unmarked) | 3.43
O=C(c1ccc([N+](=O)[O-])s1)N1CCN(c2cccc(Cl)c2)CC1 | -66.1
Cc1ccc(C(CNS(=O)(=O)c2ccc([N+](=O)[O-])cc2)N2CCN(C)CC2)cc1 (centres unmarked) | -66.8
O=[N+]([O-])c1ccc(N/N=C/c2c[nH]c3ccccc23)cc1 | 2.42
Cl.N#CC(c1ccccc1)C1CCN(Cc2ccccc2)CC1 (centres unmarked) | -50.9
C/C=C/c1ccc(OCC(O)CN2CCCCCCC2)c(OC)c1 (centres unmarked) | -35.4
CCC(C)NC(=O)C1c2cc(OC)c(OC)cc2C(=O)N(C)C1c1cccs1 (centres unmarked) | 3.75
CCC1=NN2C(=N)/C(=C\c3ccc(OCCOc4ccc(NC(C)=O)cc4)c(OC)c3)C(=O)N=C2S1 | 24.3

— paper PMC4336329 (PLoS ONE, 2015)
